Test results reported in PubChem BioAssay AID624417 (National Center for Advancing Translational Sciences (NCATS), 2012).
Among all 410,000 compounds or so, about 6,400 (1.6%) were called active. Inconclusive means that the source gave no clear call. Such entries were picked first, then a sample of the others. Calls follow the shape of the dose curve; as a rule, active = well fitted inhibition curve with a large enough effect; inconclusive = small, poorly fitted or top-dose-only effect; inactive = no such curve, though single readings can be large or run the other way. No potency is given beside an inconclusive call; the fits are too rough.

Target: Glucagon-like peptide 1 receptor (Homo sapiens) (UniProt P43220)
Test: qHTS of GLP-1 Receptor Inverse Agonists (Inhibition Mode); also: nearly all actives have a fitted effect of over 55% in size
Conditions: HEK293 GLP-1R CRE-luciferase, luminescence, 24 h, GLP-1R form is constitutively active; activity change, negative = inhibition: at 38.3 µM (top of the series) unless noted
Procedure, shortened: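 HEK293 cells stably co-expressing a cAMP-responsive luciferase reporter and constitutively active GLP-1R were seeded, incubated 12 h, then exposed to compounds for 24 h at 37 C. Luminescence was read 12 min after detection reagent; inverse agonists lower signal.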
% is scaled to controls: 0 for no effect and ±100 for the full control effect; potency is read from the fitted curve at half-maximal effect; tags tell the direction and shape of the fitted curve.

Chain of UniProt P43220 (P43220 whole entry, looked up): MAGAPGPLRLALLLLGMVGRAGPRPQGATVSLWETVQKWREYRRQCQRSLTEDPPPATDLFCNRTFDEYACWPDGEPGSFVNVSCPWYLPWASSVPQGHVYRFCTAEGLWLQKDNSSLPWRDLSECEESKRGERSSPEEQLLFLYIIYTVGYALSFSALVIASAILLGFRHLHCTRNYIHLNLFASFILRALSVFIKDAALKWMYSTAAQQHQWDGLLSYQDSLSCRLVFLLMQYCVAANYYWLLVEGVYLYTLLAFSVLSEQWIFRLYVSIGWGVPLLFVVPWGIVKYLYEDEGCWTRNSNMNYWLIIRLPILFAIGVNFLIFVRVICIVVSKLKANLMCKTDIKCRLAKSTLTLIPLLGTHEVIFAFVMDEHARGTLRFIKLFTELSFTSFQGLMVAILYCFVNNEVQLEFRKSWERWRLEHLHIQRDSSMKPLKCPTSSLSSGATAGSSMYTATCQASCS

Question: With `COc1ccccc1C(=O)NC1=NC(c2ccc(Br)cc2)CC(=O)N1` (stereo not given) as the molecule, how does the “activity change, negative = inhibition” value read?
Answer: Its value is inactive: 0.857%.

Question: For `C/C(CC(=O)Nc1cccc(Cl)c1)=N\NC(=O)Cc1ccc(Cl)cc1`, which Potency is on record?
Answer: The Potency was inconclusive [inhibitor, partial curve].

Question: For `C/C(CC(=O)Nc1ccc([N+](=O)[O-])cc1)=N/NC(=O)C1CC12CCC2` (stereo not given), which Potency is on record?
Answer: The Potency was inconclusive [inhibitor, single point].

Question: How did the Potency turn out when `COc1ccc(N2CCN(C(=O)c3ccc4c(Cl)c5c(nc4c3)CCCC5)CC2)cc1` was run?
Answer: Its Potency is inconclusive [inhibitor, single point].

Question: How did the Potency turn out when `CC(C)Oc1ccc(CN2CCC2(C)C(=O)NCc2cccc3ccccc23)cc1` (stereo not given) was run?
Answer: The Potency was inconclusive [inhibitor, single point].

Question: `CCOc1ccccc1NC(=O)NC1CC2CCCC(C1)N2Cc1nnnn1CCc1ccccc1` (stereo not given) was tested. Which Potency did it give?
Answer: The Potency was active: 10 µM.

Question: Which Potency does the source give for `COc1ccc(-c2cc(-c3ccc(Cl)cc3)c(C#N)c(SCC(=O)O)n2)cc1` here?
Answer: The Potency was inconclusive [inhibitor, single point].

Question: For `Cc1cccc(OCCN2C(=O)C(=O)c3cc(C)ccc32)c1`, which Potency is on record?
Answer: The Potency was inconclusive [inhibitor, single point].

Question: For `Cc1ccc2nc(C3CCCCC3)c(Cc3ccccc3C(F)(F)F)n2c1`, which Potency is on record?
Answer: The Potency was inconclusive [inhibitor, single point].

Question: For `COc1cc(-c2nc3ccccn3c2/N=C/c2cccc(F)c2)ccc1O`, which “activity change, negative = inhibition” value is on record?
Answer: The value was inactive: -9.89%.

Question: `CC1(C)NC(=O)N(CC(O)COc2ccc(-c3ccccc3)cc2)C1=O` (stereo not given) was tested. Which Potency did it give?
Answer: Its Potency is inconclusive [inhibitor, single point].

Question: For `CCCN(CCC)c1nc2ccccc2nc1C(C#N)C(=O)OCCOC` (stereo not given), which Potency is on record?
Answer: Its Potency is inconclusive [inhibitor, partial curve, poor fit].

Question: Which Potency does the source give for `C[C@@H]1O[C@H](C2CCCCC2)Cc2[nH][nH]c(=O)c21` here?
Answer: Its Potency is inconclusive [inhibitor, single point].

Question: Which Potency does the source give for `O=C1CC(N(CCc2ccccc2)C(=S)Nc2cc(Cl)ccc2Cl)C(=O)N1c1c(Cl)cccc1Cl` (stereo not given) here?
Answer: Its Potency is active: 4.47 µM.

Question: With `CCc1ccc(-n2c(=O)c3cccnc3n2CC(=O)Nc2ccccc2C(F)(F)F)cc1` as the molecule, how does the “activity change, negative = inhibition” value read?
Answer: The value was inactive: -13.1%.

Question: How did the Potency turn out when `CC(C)N(CCNC(=O)c1oc(=O)c2ccccc2c1-c1ccccc1)Cc1ccco1` was run?
Answer: Its Potency is inconclusive [inhibitor, partial curve, poor fit].

Question: Which Potency does the source give for `CCOC(=O)[C@]12CCC=C1N(Cc1cccc3ccccc13)C(=O)[C@H](CC(=O)N1CCC(c3ccccc3)CC1)C2` here?
Answer: Its Potency is inconclusive [inhibitor, single point].

Question: For `O=C(NC1CCCCC1)c1ccc2ccccc2c1O`, which Potency is on record?
Answer: Its Potency is inconclusive [inhibitor, single point].

Question: How did the “activity change, negative = inhibition” value turn out when `CCC(C)[C@H](NC(=O)Nc1cccc(Cl)c1)C(=O)O` (stereo not given in full) was run?
Answer: The value was inactive: 2.97%.

Question: How did the Potency turn out when `O=C(CC1C=Cc2ccccc2N1C(=O)c1ccccc1)c1ccccc1` (stereo not given) was run?
Answer: The Potency was inconclusive [inhibitor, single point].

Question: Which Potency does the source give for `COc1ccc(-c2ccc(CCC(=O)O)n2CC(=O)Nc2cccc(C(F)(F)F)c2)cc1` here?
Answer: Its Potency is inconclusive [inhibitor, single point].

Question: `O=C(NCCCN1CCOCC1)c1cc(-c2cccc(Br)c2)nc2ccccc12` was tested. Which Potency did it give?
Answer: Its Potency is inconclusive [inhibitor, single point].

Question: `COc1ccc([C@H]2C[C@@H](n3cc(COC(=O)c4ccccc4)nn3)[C@H](O)CN2C(=O)c2cccs2)cc1` was tested. Which “activity change, negative = inhibition” value did it give?
Answer: The value was inactive: -28.9%.

Question: With `COc1ccc(CN2C(=O)C(CC(C)C)Nc3ncnc(N4CCN(c5ccccn5)CC4)c32)cc1` (stereo not given) as the molecule, how does the Potency read?
Answer: The Potency was inconclusive [inhibitor, single point].

Question: `CC(C)CN(CC(C)C)S(=O)(=O)N1CCC(C(=O)NC2CCCCCCC2)CC1` was tested. Which “activity change, negative = inhibition” value did it give?
Answer: Its value is inactive: 0%.

Question: Which Potency does the source give for `CCN1CSC(=S)N(Cc2ccccc2)C1` here?
Answer: The Potency was inconclusive [inhibitor, partial curve, poor fit].

Question: For `O=S(=O)(NC1CCCCCC1)c1ccc(Br)s1`, which Potency is on record?
Answer: The Potency was inconclusive [inhibitor, single point].

Question: With `C=CCc1cc(OC)ccc1OCCOCCN1CCc2ccccc2C1` as the molecule, how does the Potency read?
Answer: The Potency was active: 10 µM.

Question: How did the Potency turn out when `CCC(CC)C(C(=O)NC1CCCC1)N1CCN(c2cc(C)nc3ccccc23)CC1` (stereo not given) was run?
Answer: Its Potency is inconclusive [inhibitor, single point].

Question: With `Cc1cccc(C(=O)NC2CCN(C(=O)Nc3ccccc3C)CC2)c1` as the molecule, how does the Potency read?
Answer: Its Potency is inconclusive [inhibitor, full curve, poor fit].

Question: How did the “activity change, negative = inhibition” value turn out when `COC(=O)c1ccc(-n2c(C)cc(C(=O)CCl)c2C)cc1` was run?
Answer: The value was inactive: -16.1%.

Question: Which Potency does the source give for `Cc1ccc2nc(N(CCCN(C)C)C(=O)c3cc(-c4cccs4)nc4ccccc34)sc2c1` here?
Answer: Its Potency is active: 2.51 µM.

Question: With `Cc1nn(-c2ccccc2)c(OC(=O)C(C)(C)C)c1Sc1ccccc1` as the molecule, how does the “activity change, negative = inhibition” value read?
Answer: The value was inactive: -21.4%.

Question: `O=C(Nc1ccc(Cl)cc1)N1CCCC(Cn2cccc2)C1` (stereo not given) was tested. Which Potency did it give?
Answer: Its Potency is inconclusive [inhibitor, partial curve, poor fit].

Question: `N=c1c2c3c(sc2ncn1Cc1ccccc1)CCCC3` was tested. Which Potency did it give?
Answer: The Potency was inconclusive [inhibitor, single point].

Question: For `COc1cccc(-c2cc3nc(C)c(C)c(N4CCN(C(=O)c5ccoc5)CC4)n3n2)c1`, which “activity change, negative = inhibition” value is on record?
Answer: The value was inactive: 18.3%.

Question: For `C/C(=N\N=C1\NC(=O)C(CC(=O)Nc2ccc(C)c(Cl)c2)S1)C(C)C` (stereo not given), which Potency is on record?
Answer: Its Potency is inconclusive [inhibitor, partial curve, poor fit].

Question: With `COc1ccc(N2C(=O)C(CC(=O)Nc3ccc(Cl)cc3)N(NC(=O)c3cccc(F)c3)C2=S)cc1` (stereo not given) as the molecule, how does the Potency read?
Answer: Its Potency is inconclusive [inhibitor, partial curve].

Question: `COC(=O)/C(=N/Nc1ccccc1OC)N1CCCc2ccccc21` was tested. Which Potency did it give?
Answer: The Potency was inconclusive [inhibitor, partial curve, poor fit].

Question: `COc1ccccc1CCc1nnc(CCC(=O)NCC[C@@H]2C[C@@H]3C=C[C@H]2C3)o1` was tested. Which Potency did it give?
Answer: The Potency was inconclusive [inhibitor, partial curve, poor fit].

Question: How did the Potency turn out when `CN(c1ccc(OCC(=O)NCCc2ccccc2)cc1)S(=O)(=O)c1ccc(Cl)cc1` was run?
Answer: The Potency was inconclusive [inhibitor, single point].

Question: `CCc1ccc(-n2c(SCc3cccc(F)c3)nc3[nH]ncc3c2=O)cc1` was tested. Which Potency did it give?
Answer: The Potency was inconclusive [inhibitor, partial curve, poor fit].

Question: With `O=C(CNC(=O)c1ccccc1F)OCC(=O)N1CCCCC1` as the molecule, how does the “activity change, negative = inhibition” value read?
Answer: Its value is inactive: 0.645%.

Question: Which Potency does the source give for `O=C(CSc1oc(-c2ccccc2)nc1S(=O)(=O)c1ccccc1)c1ccccc1` here?
Answer: The Potency was inconclusive [inhibitor, single point].

Question: `O=C(CN1CCCCCC1)Nc1ccccc1F` was tested. Which Potency did it give?
Answer: The Potency was inconclusive [inhibitor, single point].

Question: For `Cc1ccc(NC(=O)CN2CCc3cc4c(cc3C2)OCCCO4)cc1C`, which Potency is on record?
Answer: Its Potency is inconclusive [inhibitor, single point].

Question: Which Potency does the source give for `CCOC(=O)c1ccc(NC(=O)Cn2nnc(-c3ccccc3C)n2)cc1` here?
Answer: The Potency was inconclusive [inhibitor, partial curve, poor fit].

Question: Which Potency does the source give for `O=c1n(Cc2ccccc2Cl)nc2n1-c1ccccc1SC2` here?
Answer: The Potency was inconclusive [inhibitor, single point].

Question: For `CN1CCN(c2ccccc2NC(=O)c2ccccc2F)CC1`, which Potency is on record?
Answer: Its Potency is inconclusive [inhibitor, single point].

Question: For `CN(CC(=O)Nc1ccc(Cl)c(Cl)c1)C(=O)C1CCC1`, which Potency is on record?
Answer: The Potency was inconclusive [inhibitor, single point].

Question: With `CC(C)(C)c1ccc(NC(=O)Nc2ccc(F)cc2)cc1` as the molecule, how does the Potency read?
Answer: The Potency was inconclusive [inhibitor, full curve, poor fit].

Question: Which Potency does the source give for `CC(C(=O)N(C)C1CCS(=O)(=O)C1)N1C(=O)/C(=C/c2ccco2)SC1=S` (stereo not given) here?
Answer: Its Potency is inconclusive [inhibitor, partial curve, poor fit].

Question: How did the Potency turn out when `CCCCNCC#CCOc1cc(C)ccc1C(C)C` was run?
Answer: Its Potency is inconclusive [inhibitor, partial curve, poor fit].

Question: `O=c1nc2n(CCO)c3ccccc3cc-2c(=O)[nH]1` was tested. Which “activity change, negative = inhibition” value did it give?
Answer: Its value is inactive: 30.5%.

Question: Which Potency does the source give for `Cc1ccc(C(=O)OCC(=O)N2CCC(C)CC2)cc1S(=O)(=O)N1CCCCC1` here?
Answer: The Potency was inconclusive [inhibitor, single point].

Question: How did the Potency turn out when `Cc1ccc(NC(=O)COC(=O)C2(c3ccc(Cl)cc3)CCCC2)cc1` was run?
Answer: The Potency was inconclusive [inhibitor, single point].

Question: How did the Potency turn out when `Cc1cccc(NC(=S)NNc2cccc(Cl)c2)c1` was run?
Answer: Its Potency is active: 10 µM.

Question: `CC(/C=N/NC(=O)c1ccccc1C)=C\c1ccccc1` was tested. Which Potency did it give?
Answer: Its Potency is inconclusive [inhibitor, single point].

Question: Which Potency does the source give for `COc1ccc(CCNC(=O)C2CCC(C(C)(C)C)CC2)cc1OC` (stereo not given) here?
Answer: Its Potency is active: 10 µM.

Question: `Cc1cccc(C(=O)OC2CCN(C)CC2)c1` was tested. Which Potency did it give?
Answer: Its Potency is inconclusive [inhibitor, full curve, poor fit].

Question: `CC(C(=O)NCc1ccc(Cl)cc1)n1cccc1C(=O)c1ccccc1` (stereo not given) was tested. Which Potency did it give?
Answer: Its Potency is inconclusive [inhibitor, partial curve, poor fit].

Question: Which “activity change, negative = inhibition” value does the source give for `C=CCOc1ccc(C(=O)Nc2ncn[nH]2)cc1` here?
Answer: Its value is inactive: -4.5%.

Question: Which Potency does the source give for `C[C@@]12C(=O)Nc3ccc(F)cc3C(=O)N1[C@H]1c3cc(Br)ccc3OC[C@@H]1[C@@H]2c1ccccc1` here?
Answer: Its Potency is inconclusive [inhibitor, partial curve, poor fit].

Question: Which Potency does the source give for `CCOC(=O)c1c(Cc2ccccc2)c[nH]c1C` here?
Answer: The Potency was inconclusive [inhibitor, single point].

Question: `Cc1ccccc1C(=O)Nc1ccnn1C1CCN(C(C)Cc2ccccc2F)CC1` (stereo not given) was tested. Which Potency did it give?
Answer: Its Potency is inconclusive [inhibitor, partial curve, poor fit].
